Source: PubChem BioAssay AID485294 (National Center for Advancing Translational Sciences (NCATS), 2010)
Out of some 370,000 compounds screened, about 150 (0.041%) were called active. The inconclusive results got no clear call from the source; some entries with a clear call stand among them for comparison. Calls follow the shape of the dose curve; as a rule, active = well fitted inhibition curve with a large enough effect; inconclusive = small, poorly fitted or top-dose-only effect; inactive = flat fitted curve, though single readings scatter. No potency is given beside an inconclusive call; the fits are too rough.

Target: Beta-lactamase (Escherichia coli (strain K12)) (UniProt P00811)
Assay: qHTS Inhibitors of AmpC Beta-Lactamase (assay with detergent); also: nearly all actives have a fitted effect of over 25% in size
Details: AmpC hydrolysis of nitrocefin, absorbance 480 nm, 0.01% Triton; series mostly up to 114 µM
Summary of the method: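 AmpC (5.3 nM in the dispensed reagent) in 20 mM phosphate pH 7.0 with 0.01% (detergent screen) or 0.0001% Triton X-100 was preincubated with compounds for 15 min at room temperature. Nitrocefin was then added from an 800 uM solution, and hydrolysis was followed at 480 nm.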
Potency is read from the fitted curve at half-maximal effect; tags tell the direction and shape of the fitted curve.

Sequence of UniProt P00811 (P00811 whole entry, looked up): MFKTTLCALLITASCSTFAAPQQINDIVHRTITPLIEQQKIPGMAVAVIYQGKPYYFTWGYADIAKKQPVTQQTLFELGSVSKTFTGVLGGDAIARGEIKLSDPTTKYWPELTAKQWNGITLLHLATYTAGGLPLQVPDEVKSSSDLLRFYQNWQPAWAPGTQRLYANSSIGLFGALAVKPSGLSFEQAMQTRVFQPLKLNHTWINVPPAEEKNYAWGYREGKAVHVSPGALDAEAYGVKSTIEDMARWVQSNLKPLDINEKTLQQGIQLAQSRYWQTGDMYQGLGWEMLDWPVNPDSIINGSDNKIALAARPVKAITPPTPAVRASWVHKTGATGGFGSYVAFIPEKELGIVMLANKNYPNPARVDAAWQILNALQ

Compound | Potency
O=C(CN1CCN(c2cccc(C(F)(F)F)c2)CC1)N(C1CCCC1)C1CCS(=O)(=O)C1 (stereo not given) | inconclusive [inhibitor, full curve, poor fit]
C/C(=N\NC(=O)C(C)Sc1ccccc1)c1ccc([N+](=O)[O-])cc1 (stereo not given) | inconclusive [inhibitor, full curve, poor fit]
CCN1C(=O)CC(N2CCN(C(c3ccccc3)c3ccccc3)CC2)C1=O (stereo not given) | inactive
CCC(=O)NC1=C(NC(C)c2ccccc2)C(=O)c2ccccc2C1=O (stereo not given) | inactive
Cc1cc(=O)oc2cc(NC(=O)c3ccc(OC(F)F)cc3)ccc12 | inactive
O=C(Cn1ncc(Cl)c(Cl)c1=O)NC1CCS(=O)(=O)C1 (stereo not given) | inconclusive [inhibitor, partial curve]
COCC(=O)N1CCC(Oc2ccc(C(=O)NC(C)c3nccs3)cc2)CC1 (stereo not given) | inconclusive [inhibitor, partial curve]
C=CCc1ccc(OCCOc2cccc3cccnc23)c(OC)c1 | inconclusive [inhibitor, partial curve, poor fit]
CC1(C)C(=O)OC(c2cccn2-c2ccc([N+](=O)[O-])cc2)C(C)(C)C1=O (stereo not given) | inconclusive [inhibitor, full curve, poor fit]
COc1cccc(NC(=O)c2cnc(SCC(=O)NCc3ccc4c(c3)OCO4)n(C)c2=O)c1 | inactive
CC(C)NC(=O)NC(=O)COC(=O)C1(C)CC1(Cl)Cl (stereo not given) | inconclusive [inhibitor, full curve, poor fit]
COC(=O)c1ccc(Cn2cnc3cnccc32)cc1 | inconclusive [inhibitor, full curve, poor fit]
Cc1ccccc1CNc1nc(N)n(-c2ccccc2)n1 | inconclusive [inhibitor, partial curve, poor fit]
CCC(C)NC(=O)c1ccc(C(=O)c2ccccc2)cc1 (stereo not given) | inconclusive [inhibitor, partial curve]
O=c1c2ccccc2nc(/C=C/c2ccc(O)cc2)n1-c1ccccc1O | inactive
CCOCCCN(C)C1CCN(C(=O)c2oc3ccccc3c2NC(=O)c2ccc([N+](=O)[O-])cc2)CC1 | inconclusive [inhibitor, full curve, poor fit]
O=C(COc1ncnc2ccccc12)NCc1ccc2c(c1)OCO2 | inconclusive [inhibitor, full curve]
CCC(CO)Nc1ncnc2onc(-c3ccc(F)cc3)c12 (stereo not given) | inconclusive [inhibitor, full curve, poor fit]
Cc1ccc2nsnc2c1S(=O)(=O)Nc1ccccc1C(=O)O | inactive
C[n+]1ccccc1/C=C/c1ccccc1Cl | inconclusive [inhibitor, partial curve]
CCCCS(=O)(=O)N1CCCC(C(=O)Nc2ccc(Cl)cn2)C1 (stereo not given) | inconclusive [inhibitor, full curve, poor fit]
O=C(NCc1ccccc1Cl)c1ccc2c(c1)ncn2-c1cccc(F)c1 | inactive

Compound | Potency
O=C(C(Cl)c1ccccc1)N1CCCC1 (stereo not given) | inconclusive [inhibitor, full curve]
O=S(=O)(c1cccs1)N1CCN(c2ccccc2)CC1 | inconclusive [inhibitor, single point]
Cc1cc(C(C)(C)C)cc(C)c1S(=O)(=O)N1CCN(C(=O)c2cc([N+](=O)[O-])c[nH]c2=O)CC1 | inconclusive [inhibitor, single point]
O=C1Nc2cc(C(=O)N3CCc4ccccc4C3)ccc2S/C1=C\c1ccccc1 | inconclusive [inhibitor, full curve, poor fit]
CN(C)CCCNc1c(C(=O)O)cnc2c1cnn2C | inconclusive [inhibitor, partial curve]
COc1cc(OC)nc(NC(=S)NC(=O)c2ccccc2)n1 | inconclusive [inhibitor, full curve, poor fit]
CCc1cccc(C)c1NC(=O)C1CCN(S(=O)(=O)c2cc(Br)cc3c2N(C(C)=O)CC3)CC1 | inactive
CCc1cccc(C)c1NC(=O)C1=C(C(=O)O)CCCC1 | inconclusive [inhibitor, partial curve, poor fit]
Cc1ccc(C)c(CN2CCC(CNC(=O)C(CC(C)C)N3Cc4ccccc4C3=O)CC2)c1 (stereo not given) | inactive
Brc1cccc(-c2nn(-c3ccccc3)c3c2cnc2cc4c(cc23)OCO4)c1 | inconclusive [inhibitor, single point]
O=C1C2C3CCC(C3)C2C(=O)N1CNc1ccccc1 (stereo not given) | inconclusive [inhibitor, full curve, poor fit]
C=CC[N+]1(C)CC[C@]23c4c5ccc(O)c4O[C@H]2C(=O)CC[C@@]3(O)[C@H]1C5 (stereo not given in full) | inconclusive [inhibitor, full curve]
NC(N)=N/N=C/c1cc([N+](=O)[O-])ccc1O | inconclusive [inhibitor, partial curve]
CCCCC(=O)Nc1cccc(NC(=O)c2ccccc2Br)c1 | inconclusive [inhibitor, partial curve]
CC(=O)NCCC(=O)N1CCCC(CNC(=O)c2ccc(-c3ccccc3)cc2)C1 (stereo not given) | inactive
Cc1c(NC2=CC(=O)CC(C)(C)C2)ccc([N+](=O)[O-])c1C | inconclusive [inhibitor, full curve]
COc1cc([N+](=O)[O-])ccc1NC(=O)COC(=O)CCS(=O)(=O)c1ccc(C)cc1 | inconclusive [inhibitor, full curve]
O=C(Nc1cccnc1)c1cc2cc(Br)ccc2oc1=O | inconclusive [inhibitor, partial curve]
Cc1cnc(C(=O)OCc2ccc(COC(=O)c3cnc(C)cn3)cc2)cn1 | inconclusive [inhibitor, single point]
CCN(CC)S(=O)(=O)c1ccc(-c2nnc(SC)o2)cc1 | inconclusive [inhibitor, full curve, poor fit]
C#CCOCCOCCOCCNc1nc(N2CCOCC2)nc(N2CCN(C(=O)[C@H](Cc3ccc(O)cc3)n3cc([C@@H](N)CC(C)C)nn3)CC2)n1 | inactive
Cc1cccc(NC(=O)CCCN2C(=O)C3CC=CCC3C2=O)c1 (stereo not given) | inconclusive [inhibitor, full curve, poor fit]

Compound | Potency
CCN(c1ccccc1)S(=O)(=O)c1ccc(OC)c(NC(=O)C2CC(=O)N(Cc3ccccc3)C2)c1 (stereo not given) | inactive
Fc1cccc(CSc2nc3ncc(Cl)cc3[nH]2)c1 | inactive
Cc1c(C)c2ccc(OCC(=O)NCCCN3CCCC3=O)cc2oc1=O | inactive
O=C(/C=C/c1ccco1)Nc1ccc(C(=O)N2CCOCC2)cc1 | inactive
CCOC(=O)C1=C(C)N=c2s/c(=C/c3ccco3)c(=O)n2C1c1cccc(OC)c1 (stereo not given) | inconclusive [inhibitor, full curve]
Cn1c(=O)c2c(ncn2CCO)n(C)c1=O | inconclusive [inhibitor, full curve, poor fit]
N#Cc1c(SCC(=O)Nc2nncs2)sc2c(O)cc(=O)[nH]c12 | inconclusive [inhibitor, full curve, poor fit]
COc1cccc(COC(=O)C2CCN(C(=O)c3ccc(F)cc3)CC2)c1OC | inconclusive [inhibitor, single point]
COc1c(S(=O)(=O)N2CCN(c3ccc(F)cc3)CC2)ccc(Cl)c1Cl | inconclusive [inhibitor, full curve, poor fit]
C/C(=C\c1ccccc1)C(=O)N1CCN(c2cccc(C(F)(F)F)c2)CC1 | inconclusive [inhibitor, partial curve]
N#CC1=C2SCN(c3ccccc3)CN2C(=O)CC1c1ccccc1Cl (stereo not given) | inactive
COc1ccc([C@@H]2C(C#N)=C(N)S[C@@H](c3ccccc3)[C@@H]2[N+](=O)[O-])cc1 | inconclusive [inhibitor, partial curve]
S=C(NCCCN1CCOCC1)NC1CCCC1 | inconclusive [inhibitor, full curve]
CCCN(CC1CC1)C(=O)Nc1ccccc1C | inconclusive [inhibitor, single point]
COc1ccc(C2(C(=O)NCC3CCCO3)CCOCC2)cc1 (stereo not given) | inconclusive [inhibitor, single point]
CCc1nc(N2CCC3(CC2)OCCO3)c2nnn(Cc3ccccc3Cl)c2n1 | inconclusive [inhibitor, full curve, poor fit]
CCCC[C@@H](CNC)NC[C@H](Cc1ccc(O)cc1)NCCc1ccc(OCC)cc1 | inconclusive [inhibitor, full curve, poor fit]
Cc1ccc(S(=O)(=O)N(CC(=O)Nc2cccc([N+](=O)[O-])c2)C(=O)N2CCN(C)CC2)cc1 | inconclusive [inhibitor, full curve, poor fit]
CN1C2C=C3C(C#N)=C(N)C(C#N)(C#N)[C@@H](c4cccc(F)c4)[C@@H]3C1CC2 (stereo not given in full) | inconclusive [inhibitor, full curve, poor fit]
COc1ccc(/C=C(/NC(C)=O)C(=O)O)cc1 | inconclusive [inhibitor, single point]
COc1ccc(S(=O)(=O)Cc2ccc(C(=O)N3CCN(c4cc(C)ccc4C)CC3)o2)cc1 | inconclusive [inhibitor, partial curve]
